Source: patent US20220389118A1 (Chugai, published 2022)

What was measured:
[1] = molecular target: T1, mouse FcγRIV extracellular domain with C-terminal His tag (mouse, UniProt A0A0B4J1G0 21-203); experiment: SPR, antibody on protein L, mFcγR as analyte, 25 C
T1 construct: also called mFcγRIV; mFc γ R IV
T1 sequence: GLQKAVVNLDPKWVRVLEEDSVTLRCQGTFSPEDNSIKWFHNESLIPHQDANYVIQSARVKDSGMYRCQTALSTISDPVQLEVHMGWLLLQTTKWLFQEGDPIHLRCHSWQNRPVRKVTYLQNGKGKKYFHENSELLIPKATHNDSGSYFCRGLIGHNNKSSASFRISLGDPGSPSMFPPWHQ

[2] = molecular target: T2, mouse FcγRI extracellular domain with C-terminal His tag (mouse, UniProt P26151 25-297); experiment: SPR, antibody on protein L, mFcγR as analyte, 25 C
T2 construct: extracellular domain; also called mFcγRI; mFc γ R I
T2 sequence (looked up): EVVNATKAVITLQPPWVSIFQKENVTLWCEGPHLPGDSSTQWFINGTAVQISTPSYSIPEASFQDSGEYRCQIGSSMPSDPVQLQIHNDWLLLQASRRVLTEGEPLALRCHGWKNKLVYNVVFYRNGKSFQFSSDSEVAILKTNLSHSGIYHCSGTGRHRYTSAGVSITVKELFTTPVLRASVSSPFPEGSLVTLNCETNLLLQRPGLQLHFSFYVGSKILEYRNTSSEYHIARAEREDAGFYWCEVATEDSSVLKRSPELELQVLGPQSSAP

[3] = molecular target: T3, mouse FcγRIIb extracellular domain with C-terminal His tag (mouse, UniProt P08101 30-210); experiment: SPR, antibody on protein L, mFcγR as analyte, 25 C
T3 construct: extracellular domain; also called mFcγRIIb; mFcγRII
T3 sequence (looked up): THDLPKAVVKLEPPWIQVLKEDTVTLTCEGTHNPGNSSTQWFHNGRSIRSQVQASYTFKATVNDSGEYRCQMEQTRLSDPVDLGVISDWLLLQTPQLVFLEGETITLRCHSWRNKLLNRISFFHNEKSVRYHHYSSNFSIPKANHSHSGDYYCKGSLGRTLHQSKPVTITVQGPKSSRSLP

[4] = molecular target: T4, mouse FcγRIII extracellular domain with C-terminal His tag (mouse, UniProt P08508 31-215); experiment: SPR, antibody on protein L, mFcγR as analyte, 25 C
T4 construct: extracellular domain; also called mFcγRIII; mFc γ R III
T4 sequence (looked up): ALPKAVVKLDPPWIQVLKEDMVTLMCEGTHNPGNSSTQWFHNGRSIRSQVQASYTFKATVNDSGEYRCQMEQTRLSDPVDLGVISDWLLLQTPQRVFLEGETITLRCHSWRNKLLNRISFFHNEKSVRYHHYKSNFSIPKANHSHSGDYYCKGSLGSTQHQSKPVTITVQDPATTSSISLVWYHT

[5] = molecular target: T3, mouse FcγRIIb extracellular domain with …; experiment: SPR (Biacore)
[6] = molecular target: T3, mouse FcγRIIb extracellular domain with …; experiment: SPR, Ab on protein L, mFcγR analyte, 25 C

B1: VH3/L(WT)-IgG1-F760 (antibody)
heavy: QVQLQESGPGLVKPSETLSLTCAVSGHSISHDHAWSWVRQPPGEGLEWIGFISYSGITNYNPSLQGRVTISRDNSKNTLYLQMNSLRAEDTAVYYCARSLARTTAMDYWGEGTLVTVSS[sequence of human IgG1 constant region with L235R S239K (EU numbers) omitted]
light: DIQMTQSPSSLSASVGDRVTITCRASQDISSYLNWYQQKPGKAPKLLIYYTSRLHSGVPSRFSGSGSGTDFTFTISSLQPEDIATYYCQQGNTLPYTFGQGTKVEIKRTVAAPSVFIFPPSDEQLKSGTASVVCLLNNFYPREAKVQWKVDNALQSGNSQESVTEQDSKDSTYSLSSTLTLSKADYEKHKVYACEVTHQGLSSPVTKSFNRGEC
notes: VH3-IgG1 with L235R and S239K (EU numbering); copies: 2 + 2
Does B1 bind [1]?
Result: no binding

Does B1 bind [2]?
Result: no binding

Does B1 bind [3]?
Result: no binding

Does B1 bind [4]?
Result: no binding

B2: VH3/L(WT)-IgG1-F1022 (antibody)
heavy: QVQLQESGPGLVKPSETLSLTCAVSGHSISHDHAWSWVRQPPGEGLEWIGFISYSGITNYNPSLQGRVTISRDNSKNTLYLQMNSLRAEDTAVYYCARSLARTTAMDYWGEGTLVTVSS[sequence of human IgG1 constant region with K326D L328Y (EU numbers) omitted]
light: B1 light
notes: VH3-IgG1 with K326D and L328Y (EU numbering); copies: 2 + 2
How did the Kd [5] turn out when B2 was run?
Its Kd is 10 nM.

What about the Kd [6] of the same binder?
The Kd was 8.5 nM.
